This note sets out measurements from paper PMC8639510.

Protein sequences, listed by entry. Tags and fused reporters are not part of them.
UniProt Q44445: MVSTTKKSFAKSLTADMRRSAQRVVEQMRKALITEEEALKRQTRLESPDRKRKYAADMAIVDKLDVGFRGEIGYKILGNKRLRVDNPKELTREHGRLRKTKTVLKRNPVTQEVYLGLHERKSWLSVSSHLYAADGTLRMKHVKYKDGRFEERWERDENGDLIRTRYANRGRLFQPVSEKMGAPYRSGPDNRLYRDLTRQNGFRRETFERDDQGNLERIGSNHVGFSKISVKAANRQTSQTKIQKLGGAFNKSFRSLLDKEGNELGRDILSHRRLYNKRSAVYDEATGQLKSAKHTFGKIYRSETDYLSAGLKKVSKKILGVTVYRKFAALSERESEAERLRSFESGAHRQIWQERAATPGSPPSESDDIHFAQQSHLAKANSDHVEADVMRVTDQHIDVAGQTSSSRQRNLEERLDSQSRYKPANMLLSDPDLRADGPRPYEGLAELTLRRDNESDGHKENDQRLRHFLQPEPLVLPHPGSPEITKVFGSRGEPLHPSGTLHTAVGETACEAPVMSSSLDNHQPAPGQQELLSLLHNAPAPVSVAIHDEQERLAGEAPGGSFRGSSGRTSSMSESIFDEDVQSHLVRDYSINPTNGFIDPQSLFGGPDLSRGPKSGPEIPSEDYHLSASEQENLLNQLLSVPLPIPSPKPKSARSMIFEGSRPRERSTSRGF

These are yes or no findings as the source states them, for the method shown. For part of these data: In cells and extracts the contact can be indirect. Some results given as binding are weak or reduced against the parent protein; the word gives no strength. For part of these data: Where a sequence is shown, tags or fusion partners need not be part of it.

In experiment [1] the target is T1, JAZ8-cYFP (Arabidopsis thaliana) (UniProt Q8LBM2).
T1 sequence: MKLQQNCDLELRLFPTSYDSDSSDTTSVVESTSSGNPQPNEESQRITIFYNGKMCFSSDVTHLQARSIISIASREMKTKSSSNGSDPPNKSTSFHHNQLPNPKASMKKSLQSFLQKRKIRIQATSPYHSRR
The experiment in a line: split reporter; BiFC with split YFP; constructs under the 35S promoter transiently cotransformed into Arabidopsis leaf protoplasts; confocal microscopy, excitation 514 nm, emission 530-600 nm.

In experiment [2] the target is JAZ8-ZIM (aa 13-101) fused to the binding domain (JAZ8-ZIM-pAS2.1) (Arabidopsis thaliana) (UniProt Q8LBM2). Nature of the experiment: two-hybrid; JAZ8 and its fragments in pAS2.1 (BD), VirE3 in pACT2 (AD), cotransformed into yeast strain PJ69-4A; growth on SD-LWH plates, 4 days at 28°C; repeated three times.
Experiment [3] addresses JAZ8CT (aa 101-127) fused to the binding domain (JAZ8CT-pAS2.1) (Arabidopsis thaliana) (UniProt Q8LBM2). The experiment is described as above.
Experiment [4] has as its target JAZ8NT (aa 1-101) fused to the binding domain (JAZ8NT-pAS2.1) (Arabidopsis thaliana) (UniProt Q8LBM2). Described as above.
Experiment [5] concerns the target T2, full-length JAZ8 fused to the binding domain (JAZ8-pAS2.1) (Arabidopsis thaliana) (UniProt Q8LBM2).
T2 sequence: T1 sequence
The experiment is described as above.

Experiment [6] addresses T3, maltose binding protein (MBP)-fused JAZ8 (Arabidopsis thaliana) (UniProt Q8LBM2).
T3 sequence: T1 sequence
The experiment in a line: pull-down; MBP pull-down: MBP-JAZ8 resin (or MBP resin) incubated with GST-VirE3, SDS-PAGE, immunoblot with anti-GST and anti-MBP antibody; both purified.

For VirE3-nYFP (from UniProt Q44445 1-672), the binding result in experiment [1] was “binds”.
As to “full-length VirE3 fused to the activation domain (pACT2-VirE3) (from UniProt Q44445 1-672)”, the binding entry in experiment [2] is given as “binds”; in experiment [3], “no binding”; in experiment [4] it was “binds”; in experiment [5], “binds”.
Take “GST-tagged VirE3 (from UniProt Q44445 1-672)”: in experiment [6], the binding entry is “binds”.
